# Test results as given in the RNAGym collection of RNA variant scans (doi:10.1073/pnas.2313332121).
# Variants at the floor of the assay are shown more often than the library holds them.
# B1: TPR 5TU (parent)
# chain: GGAUCUUCUCGAUCUAACAAAAAAGACAAAUCUGCCACAAAGCUUGAGAGCAUCUUCGGAUGCAGAGGCGGCAGCCUUCGGUGGCGCGAUAGCGCCAACGUUCUCAACUAUGACACGCAAAACGCGUGCUCCGUUGAAUGGAGUUUAUCAUG
# Variants of: B1
# Experiment: polymerase ribozyme fitness, log enrichment relative to wild type (log ratio); higher = more active; in vitro selection for triplet polymerase activity
# Method in brief: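 Fitness compares each genotype's enrichment to that of the wild type on a logarithmic scale, averaging replicates with inverse-variance weights. The logarithm is base 2. Enrichment came from Illumina sequencing of input and output libraries after one triplicate round of in vitro selection, which included frozen incubation at −7 °C, of PCR-built, transcribed mutant libraries of each subunit of a heterodimeric triplet polymerase ribozyme. Only genotypes with ≥10 input reads and ≥1 read per output were kept.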
row,Variant,polymerase ribozyme fitness (log ratio)
1,A29U A37U C72G C95U C114U G143U,≤ -4.2
2,A28U C72G G86A G133U,≤ -4.2
3,A29G C54A A91U C95U,≤ -4.2
4,A28U C54U G92A G117U C123U,≤ -4.2
5,A28U C54U U56G A66U C87U C93G,≤ -4.2
6,A29C U44G C57U G59A C93U,≤ -4.2
7,A28U G34U C96A A142C G143A,≤ -4.2
8,A28U C54A G92U U127G G141A,≤ -4.2
9,A28U A49C C87G A106C C118G U144G,≤ -4.2
10,A28U A30G G50A U56A G92C U104G U135G,≤ -4.2
11,A29G C32G A47U A49C A110G C114U,≤ -4.2
12,A29U A30G C57G C105U C108U,≤ -4.2
13,A28U A29U A41U A52C C93A,≤ -4.2
14,A28U A41C G92C,≤ -4.2
15,A29C A52C G83C U90C C95A A97U A98G U139A,≤ -4.2
16,A29U A39G A52C G58C A91U U145C,≤ -4.2
17,A29U A41U U53A C79U A142C,≤ -4.2
18,A29U A40C C87G,≤ -4.2
19,A28U U53A C57U G92U A122G,≤ -4.2
20,A29G A49C C51U A91G C95G C118A A120C,≤ -4.2
21,A29C C51A G65A G71A U78A,≤ -4.2

row,Variant,polymerase ribozyme fitness (log ratio)
1,A29U A41U A52U G81C,≤ -4.2
2,A29G A106G C116A G140U U145G,≤ -4.2
3,A29C A40U G50A A89U C96G A107U U146C A147C,≤ -4.2
4,A29C A49G C69G U77G C79U C116U U146A,≤ -4.2
5,A29C G46A C75G C108U U111G U146G,≤ -4.2
6,A29G C57A A137G,≤ -4.2
7,A28U C76U G83A G92C,≤ -4.2
8,A28G U33A A40G A120U,≤ -4.2
9,A29C U55A C57U U90G A91C U148G,≤ -4.2
10,A29C A66C G80A A110U A147C,≤ -4.2
11,A28U C76A A89G A120U U139C,≤ -4.2
12,A29G U61A G126C,≤ -4.2
13,A28U G42U G94C U102A C149G,≤ -4.2
14,A28U C79A C87G C96G,≤ -4.2
15,A29C U53A G84C C93U A121G C125G,≤ -4.2
16,A28U G59U G74U C85G A113U C114A U127A,≤ -4.2
17,A29C G140U,≤ -4.2
18,A29C A41G U53A A150C,≤ -4.2
19,A28U A47G A49C U130G U146G,≤ -4.2
20,A29G A73U A91G C99U A115U A137U,≤ -4.2
21,A29C G84A U101C U127C,≤ -4.2

row,Variant,polymerase ribozyme fitness (log ratio)
1,A28U G133U,≤ -4.2
2,A29C G59C G94A G112A A120C G140A,≤ -4.2
3,A29C U56A G80U A121G,≤ -4.2
4,A29G G50C C51A U53A A97U A98G C125A G128U G133A,≤ -4.2
5,A28G G88C,≤ -4.2
6,A28U C69A G83A C105G A115U G143A,≤ -4.2
7,A29C C54U C85G,≤ -4.2
8,A28U G50C U53A A66U C69U C79U G84U G94U G143A,≤ -4.2
9,A28U G83A C116U U145A,≤ -4.2
10,A29C C36G U78C C93G A97G,≤ -4.2
11,A29G A89U G133U,≤ -4.2
12,A28U C35U A91U C132U,-3.89
13,A28U U53A G92U U104A,≤ -4.2
14,A29C U55A C75A C85U G141C,≤ -4.2
15,A28U C87G A113U G126U U144C,≤ -4.2
16,A28U C32U A47G C87G U90C C96G C99U A120G,≤ -4.2
17,A29C A37C A64G C87A C95G U146G,≤ -4.2
18,A29C C57G A66C C96G C125A C132G,≤ -4.2
19,A28U G65C G74U U101C A147C,≤ -4.2
20,A29G A40U A47C C87A C93A U111A G124U,≤ -4.2
21,A28U A107G U111G,≤ -4.2

row,Variant,polymerase ribozyme fitness (log ratio)
1,A28U G59U G84C C85G U102G A115G,≤ -4.2
2,A29G G86U G100U,≤ -4.2
3,A29G C32A U55A U77A U78G A91G C95U G112A U139G G140A,≤ -4.2
4,A29C A49C C76U G80C C99G C116U A119C,≤ -4.2
5,A28U C54U G70C G88C U104A C123U,≤ -4.2
6,A29G A40G A91U C99G G133C,≤ -4.2
7,A28U A52G C87U C93A U148G U151G,≤ -4.2
8,A28U G62U A89G A150U,≤ -4.2
9,A28U U53A C116G G124U,≤ -4.2
10,A29G U53A C103A G143A U144G,≤ -4.2
11,A29C A37G G65C C75G U77A A97G C118U C123U,≤ -4.2
12,A29C U61G,≤ -4.2
13,A28U U56A C69A U82A A89G C96U C105U G140U,≤ -4.2
14,A28U C132G,≤ -4.2
15,A28U A40U A49C G68U U90G C96U A107G A110C,≤ -4.2
16,A28U G34U G46A A60C U82G C103U A115C A122U U146A,≤ -4.2
17,A29C G67C G68C G71A G81U G83U C95U G126C G133A,≤ -4.2
18,A28U U53A G58A C95U C114U,≤ -4.2
19,A28U A29G A40G C51G C96G C99G G136C,≤ -4.2
20,A29G A52C C57U C93U,≤ -4.2
21,A28U G74U C85G C116G G141C,≤ -4.2
